Reference: the RNAGym collection of RNA variant scans (doi:10.1101/gad.245936.114)
This sample is rich in variants without activity.

B1: tRNA (parent)
chain: CUCUCGGUAGCCAAGUUGGUUUAAGGCGCAAGACUUUAAUUUAUCACUACGAAAUCUUGAGAUCGGGCGUUCGACUCGCCCCCGGGAGAUUUUUUCCUCGAGCAA

Variants of: B1
Experiment: nonsense suppression (GFP-seq) (ratio to wild type); higher = more function; SUP4oc tRNA, yeast GFP reporter sort-seq
In short: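 Nonsense suppression (GFPSEQ) is the median GFP/RFP ratio of each sorting bin, weighted by the variant's estimated share of cells in that bin and expressed relative to the unmutated parent tRNA. Yeast strains carried genome-integrated variants of an ochre-suppressor tRNA from a library with ~3% random mutations, plus a galactose-driven GFP ochre reporter and RFP, and were grown in raffinose/galactose medium containing 80 mg/L adenine. Cells were sorted into GFP/RFP bins, each bin was Illumina-sequenced (phred ≥30), and variants were kept only with ≥100 reads and ≥30 cells.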

Variant | nonsense suppression
A13C U20G C80G | ≤ 0.026
A13C A31C G85A | ≤ 0.026
A13C U22G A30G A33C G61U C77U | ≤ 0.026
C12G C27U U71C | ≤ 0.026
C12U U76C | 0.818
C12U A14U G73C | ≤ 0.026
C12U A23G | 0.0776
A13C A31G A60U C77A | ≤ 0.026
C12A U70A | ≤ 0.026
A13C G26C | ≤ 0.026
C12U U16G A23C U76A | ≤ 0.026
A13C A23G A31U | ≤ 0.026
A13G A23C U35G G85U | ≤ 0.026
C12A U63A C77G | ≤ 0.026
C12G A54U A87G | ≤ 0.026
C12U A14U A62C | ≤ 0.026
C12G U55C | ≤ 0.026
A13C U21A | 1.19
C12U G61U G88A | ≤ 0.026
C12U G32A G66C | ≤ 0.026
A13C C68U | 0.836
C12G G15A A30C C83G | ≤ 0.026
C12G G15U A31G G84C | ≤ 0.026
C12U C29U C79A | ≤ 0.026

Variant | nonsense suppression
C12A A24U G69C A87G | ≤ 0.026
C12A A60G | ≤ 0.026
C12U C29A C68U | ≤ 0.026
A13C A14G A23G C68A | ≤ 0.026
C12A U17C G66C | ≤ 0.026
A13C C75U | 1.09
C12U C56A G59A | ≤ 0.026
C12A U21C U70A | ≤ 0.026
C12G G25A | ≤ 0.026
C12U C27U | 0.121
C12U G69C | ≤ 0.026
C12G G28C C77A G78A C82U | ≤ 0.026
C12U U17A A62C G66C C80A | ≤ 0.026
A13C G66C | ≤ 0.026
C12A U16G | ≤ 0.026
C12G G86A | ≤ 0.026
C12G G86C | ≤ 0.026
C12U G84C | ≤ 0.026
C12U A33U U55G G69A U71C | ≤ 0.026
C12G A14G U70A | ≤ 0.026
C12A C56A | ≤ 0.026
C12U G19U C27A G69A | ≤ 0.026
A13G A14C C27G A33G G73C | ≤ 0.026
C12U G26U | ≤ 0.026

Variant | nonsense suppression
C12U G26C | ≤ 0.026
C12G U35G U76C | ≤ 0.026
C12U A54G G69A | ≤ 0.026
C12U G25A A30C | ≤ 0.026
C12G C29A G59C U76G | ≤ 0.026
C12U G86A | ≤ 0.026
C12G A23U G85A | ≤ 0.026
C12G G15U G65A U76G | ≤ 0.026
C12U G25A | 1.19
C12G U20G | ≤ 0.026
A13C C27G C72A | ≤ 0.026
C11U U58A | ≤ 0.026
C12A U21A G69C U70A | ≤ 0.026
C12G G61A G73C | ≤ 0.026
A13G A24U A74U | ≤ 0.026
C12A G19C U20G C72U | ≤ 0.026
C12U A14G A23C C72U U76A | ≤ 0.026
C12G A62U C77G G88C | ≤ 0.026
C12U G32C G67C U70C | ≤ 0.026
C12A C75G | ≤ 0.026
A13C G28U | 0.0283
A13C G28A | 1.08
C12U U16C G28A | 0.295
A13C U55C | 0.827

Variant | nonsense suppression
C12U A14C A31C | ≤ 0.026
C12G A13C G61A C77G | ≤ 0.026
C12A G15C U22C | ≤ 0.026
C11U U76C C83A | ≤ 0.026
C12G C27U | ≤ 0.026
C12G U17C A87C | ≤ 0.026
C12G C72U | ≤ 0.026
C12G C72G | ≤ 0.026
C12G C72A | ≤ 0.026
C12U A33U C56A U63A | ≤ 0.026
C12G A33U U70G | ≤ 0.026
C12G C27U A54U U55C | ≤ 0.026
A13C U17A A62G C79G | ≤ 0.026
C12U C27U U70C | ≤ 0.026
A13C G32C A33C G88C | ≤ 0.026
C12G U20A A54U A62C | ≤ 0.026
C11U U63G | 0.034
C11U U63C | ≤ 0.026
C12A U20A G78A | ≤ 0.026
C12A U57C U58A | ≤ 0.026
C12G C29A C34U A87C | ≤ 0.026
C12U G67U | ≤ 0.026
C12U G67A | ≤ 0.026
A13C U58A G61C | ≤ 0.026

Variant | nonsense suppression
C12U G73A A74G C81A | ≤ 0.026
C12G G61A C77A | ≤ 0.026
C12U A13C U20C A60C G85A | ≤ 0.026
A13C G61A G84C | ≤ 0.026
C12G A14G U20G C27U C68A C82G | ≤ 0.026
C12U U20C | 0.177
C12U U22G | 0.745
C12U A23C G26C C82G | ≤ 0.026
C12U C64U G69C C83U | ≤ 0.026
C11U U71A | ≤ 0.026
C12U U22C G67A | ≤ 0.026
C12A C68A | ≤ 0.026
C12U U35C G59A | ≤ 0.026
A13G A24C C79G | ≤ 0.026
C12U A23U C68A | ≤ 0.026
A13C G65C | ≤ 0.026
C12U G28U | 0.0705
C12G C82U | ≤ 0.026
C12G U17A | ≤ 0.026
C12G A54C C72G | ≤ 0.026
C12G C56G G61C | ≤ 0.026
C12U A54G A62C | ≤ 0.026
C12G G15A G19U | ≤ 0.026
C12A A30G C79G | ≤ 0.026

Variant | nonsense suppression
C12A A14U U21G G84U | ≤ 0.026
C12U G67C U70A | ≤ 0.026
A13C A14C A24U G28C | ≤ 0.026
A13C G15C | ≤ 0.026
A13G A31G C81U | ≤ 0.026
C12A U35C G59C C64G | ≤ 0.026
C12A C29U | ≤ 0.026
C12U U55C G67C C81A | ≤ 0.026
C12A U17A A33G | ≤ 0.026
C12U G15C U71G | ≤ 0.026
C12U G19C G59C U76A | ≤ 0.026
C12G U17G C83A A87U | ≤ 0.026
C12G A62C G65A C83G | ≤ 0.026
C12U G15C | ≤ 0.026
A13C G78U A89U | ≤ 0.026
C12A G15C A33C U71C | ≤ 0.026
A13C G61A G85C | ≤ 0.026
C12A G69C | ≤ 0.026
C12G A14G A33G | ≤ 0.026
A13C G26U U55A C79A A87C | ≤ 0.026
C12U A33G C56G G65C | ≤ 0.026
C12U A14C A31C G32U | ≤ 0.026
A13C U58G A60U | ≤ 0.026
A13C A14G U17A C56U U58C U71G | ≤ 0.026

Variant | nonsense suppression
C12U U16C G26U U63A A74C G88A | ≤ 0.026
C12G G25C C75A | 0.482
A13G A31C C75U C81U | ≤ 0.026
A13G A30C G61A G69C C72G C82G | ≤ 0.026
C12A G61U | ≤ 0.026
C12G A30C G59U | ≤ 0.026
A13C A24U U70C G86U | ≤ 0.026
C12U A14G A33G U57C | ≤ 0.026
A13G A24G A62C C77G | ≤ 0.026
C12A U16C C75A | ≤ 0.026
C12U G32U | ≤ 0.026
C12U C34G C68A U70G | ≤ 0.026
C12A A62C U63C G73U | ≤ 0.026
C12G A33U U55C A62U C72A G73A U76C | ≤ 0.026
A13C G61U A87C | ≤ 0.026
C12U U35G | ≤ 0.026
A13G A14G | ≤ 0.026
C12A C56U G69C U70C | ≤ 0.026
A13C C56A | ≤ 0.026
C12G A14U A89G | ≤ 0.026
C12U G19A G65C C80A | ≤ 0.026
A13G A30C G61A G69C C72U C82G | ≤ 0.026
C12U U16G | 0.785
